Data from PubChem BioAssay AID651820 (National Center for Advancing Translational Sciences (NCATS), 2012).
The whole screen tested about 340,000 compounds, of which about 12,000 (3.5%) were called active. The shares of active, inactive and inconclusive entries below differ from those in the screen. Calls follow the shape of the dose curve; as a rule, active = well fitted inhibition curve with a large enough effect; inconclusive = small, poorly fitted or top-dose-only effect, or another doubt; inactive = no such curve, though single readings can be large or run the other way. Potencies of inconclusive entries are left out as doubtful fits.

test: qHTS Assay for Inhibitors of Hepatitis C Virus (HCV); conditions: Huh7.5.1 HCVcc-Cre (HCVcc is cell-culture hepatitis C virus) infection, luciferase reporter, 44 h; activity change, negative = inhibition: at 41.8 µM (top of the series) unless noted
Outline: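 Cells seeded at 1,000/well and cultured 4 h, then compounds added followed by HCVcc-Cre virus (~0.5 moi). After 44 h further culture, luciferase substrate was added, plates held 15 min at room temperature, and luminescence read for 15 sec.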
% is scaled to controls: 0 for no effect and ±100 for the full control effect; potency is read from the fitted curve at half-maximal effect; tags tell the direction and shape of the fitted curve.

SMILES	Potency	activity change, negative = inhibition
CCOC(=O)C1(CCOc2ccccc2)CCN(Cc2cccc3nonc23)CC1	inconclusive [inhibitor, single point]	
CCc1nn(CCCN2CCN(c3cccc(Cl)c3)CC2)c(=O)n1CCOc1ccccc1	active: 10 µM	
COc1cc(C(=O)OCCCOC(=O)c2cc(OC)c(OC)c(OC)c2)cc(OC)c1OC	inconclusive [inhibitor, single point]	
CCn1cc(CNC(=O)c2ccc3nc(Cc4ccccc4F)oc3c2)cn1	active: 11.2 µM	
O=C(N/N=C/c1ccc(O)c(O)c1)c1cccc(S(=O)(=O)N2CCCCC2)c1		inactive: 18.4%
COc1cc(/C=C2\SC(=O)N(Cc3ccc(F)cc3)C2=O)cc([N+](=O)[O-])c1O		inactive: -6.35%
COc1ccc(N(CC(=O)Nc2ccccc2C(F)(F)F)C2=NC3CS(=O)(=O)CC3S2)cc1 (stereo unspecified)		inactive: 10.5%
CCCCn1c(CCc2ccccc2)nc2cc3[nH]c(=O)c(C(C)C)nc3cc21	inconclusive [inhibitor, single point]	
CN(C)c1ccc(NC(=O)c2cccc(C(=O)Nc3ccc(N(C)C)cc3)n2)cc1	inconclusive [inhibitor, full curve, poor fit]	
CN(C)S(=O)(=O)c1cccc(NC(=O)/C=C/c2ccccc2[N+](=O)[O-])c1	inconclusive [inhibitor, full curve]	
CNc1nc(N/N=C/c2cc3c(cc2[N+](=O)[O-])OCO3)nc(Nc2ccccc2)n1	active: 1 µM	
COc1cccc(C(=O)N2CCSC2=S)c1	inconclusive [inhibitor, partial curve]	
C[n+]1c(-c2ccccc2)c2cc(N)ccc2c2ccc(N)cc21	active: 2.51 µM	
O=C(Nc1nnc(CCN2CCCCC2)s1)c1ccc(Br)cc1	inconclusive [inhibitor, single point]	
Cc1ccc(C2CCN(C(=S)NC(C)C)C2)cc1 (stereo unspecified)		inactive: -10.2%
CCOc1cccc(C(=O)Nc2ccc(N3CCCC3)cc2)c1	inconclusive [inhibitor, partial curve]	
O=C(Nc1ccc2nc(-c3ccc(Br)o3)[nH]c2c1)c1ccco1		inactive: -19.8%
CC(=O)N1CCc2c(sc(NC(=O)C3CC3)c2-c2nc3ccccc3s2)C1	active: 12.6 µM	
CC(=O)Nc1ccc(N2C(=O)CC(N3CC(C)OC(C)C3)C2=O)cc1 (stereo unspecified)		inactive: 12.3%
CCc1ccc(C(=O)/C=C/NCc2ccc(F)cc2)cc1		inactive: 28.9%
Nc1ncnc2c1ncn2CCN1CCCCC1		inactive: 3.12%
CC(=O)c1cccc(NC(=O)c2ccc([N+](=O)[O-])o2)c1	inconclusive [inhibitor, single point]	
C=C1C(=O)O[C@@H]2[C@H]1CC[C@H](C)[C@]1(O)CCC(=O)[C@@]21C	inconclusive [inhibitor, single point]	
Cc1oc(-c2ccccc2F)nc1CS(=O)CC(=O)NC1CC1 (stereo unspecified)		inactive: 12.3%

SMILES	Potency	activity change, negative = inhibition
Cc1cc(C(=O)COC(=O)c2ccc(N)c([N+](=O)[O-])c2)c(C)n1Cc1ccc2c(c1)OCO2	active: 12.6 µM	
Cc1cccc2cc(C#N)c(SCC(=O)N3CCC(C)CC3)nc12	inconclusive [inhibitor, single point]	
Cc1ccc(-c2nnc(-c3ccccc3)c(N3CCOCC3)n2)cc1	active: 11.2 µM	
Cc1ccccc1-c1nc(CS(=O)CC(=O)NCCCN(C)c2ccccc2)c(C)o1 (stereo unspecified)	inconclusive [inhibitor, partial curve, poor fit]	
Cc1ccc(C(=O)Nc2ccc(C(=O)N/N=C/c3ccc(C)o3)cc2)cc1	inconclusive [inhibitor, single point]	
COc1cccc(NC(=O)c2oc3ccccc3c2NC(C)=O)c1	inconclusive [inhibitor, single point]	
COc1ccc(CCNC(=O)c2cc(-c3ccccc3)c(N3CCOCC3)s2)c(OC)c1OC	active: 10 µM	
CN(C)S(=O)(=O)N(CC(=O)N1CCN(c2ccccc2)CC1)c1ccccc1	inconclusive [inhibitor, single point]	
O=C(NCc1ccc(N2CCCC2=O)cc1)c1cn(CCc2ccccc2)nn1	inconclusive [inhibitor, single point]	
Cc1ccccc1OCc1nnc2c3cnn(C)c3ncn12	inconclusive [inhibitor, single point]	
COCCOC(=O)c1c(NC(=O)COC(=O)c2ccc(C)o2)sc(C(N)=O)c1C	inconclusive [inhibitor, partial curve]	
O=P(Oc1ccccc1)(Oc1ccccc1)N1CCOCC1	inconclusive [inhibitor, single point]	
O=C(Nc1ccccc1N1CCCCC1)c1cccc(F)c1	inconclusive [inhibitor, full curve]	
COc1cccc(S(=O)(=O)Nc2ccc3sc(C)nc3c2)c1	inconclusive [inhibitor, partial curve, poor fit]	
CCOC(=O)C(C)Oc1cccc2c(=O)n(CC(=O)NCc3ccc4c(c3)OCO4)ccc12 (stereo unspecified)		inactive: -29.2%
CCc1noc(C)c1C(=O)Nc1ccc(C)c(S(=O)(=O)N2CCCCCC2)c1	active: 12.6 µM	
CCCCn1c(N)c(N(CCC(C)C)C(=O)c2ccc([N+](=O)[O-])s2)c(=O)[nH]c1=O	inconclusive [inhibitor, single point]	
CC(C)CSC1=NSC2=NC(=O)/C(=C\c3ccccc3)C(=N)N12	inconclusive [inhibitor, single point]	
c1ccc(Cn2cc(CN3CCCO3)c(-c3ccc4c(c3)OCO4)n2)cc1	inconclusive [inhibitor, single point]	
S=C(NCc1ccc2c(c1)OCO2)Nc1ccc2nsnc2c1	inconclusive [inhibitor, single point]	
CCN1C(=O)[C@H]2[C@@H](c3ccc(-c4ccc5c(c4)OCO5)c(OC)c3)N[C@@](C)(C(=O)OC)[C@H]2C1=O	active: 3.16 µM	
CCOc1ccc(S(=O)(=O)N2CCCC(C(=O)N3CCN(c4ccccc4)CC3)C2)cc1 (stereo unspecified)	inconclusive [inhibitor, single point]	
CCOc1cc(N2CCOCC2)c(OCC)cc1NC(=O)c1ccc(F)c(S(=O)(=O)N2CCOCC2)c1	inconclusive [inhibitor, full curve]	
CN(C)c1ccc(C(=O)N/N=C/c2cc(Br)cc(Br)c2O)cc1	inconclusive [inhibitor, single point]	

SMILES	Potency	activity change, negative = inhibition
Cc1scc(C(=O)N/N=C/c2ccsc2)c1C		inactive: 11.4%
CNc1ncc(C(=O)c2ccc(-c3ccccc3)cc2)s1	inconclusive [inhibitor, single point]	
CC(=O)Oc1ccc2c(=O)c(Oc3ccccc3)coc2c1OC(C)=O		inactive: -1.38%
CC(Oc1ccc(Br)cc1)C(=O)Nc1nc(-c2ccccn2)cs1 (stereo unspecified)	active: 11.2 µM	
CCOC(=O)C1CCN(S(=O)(=O)c2cc(C(=O)OC)n(C)c2)CC1		inactive: -15.4%
O=C(c1ccco1)N1CCN(S(=O)(=O)Cc2ccccc2Cl)CC1	inconclusive [inhibitor, single point]	
Brc1ccc2c(c1)C(c1cccnc1)=NNC(c1cccs1)=N2	inconclusive [inhibitor, single point]	
Cc1sc2ccccc2[n+]1CCC(C)S(=O)(=O)[O-] (stereo unspecified)		inactive: 8.88%
O=C(CSc1nnc(-c2cnccn2)n1Cc1ccco1)c1ccc(Cl)c(Cl)c1	inconclusive [inhibitor, single point]	
O=C(Nc1ccccc1)c1cc2ccc3ccccc3c2s1	active: 11.2 µM	
COc1ccc(C(C[N+](=O)[O-])c2c(C)[nH]c3ccccc23)cc1OC (stereo unspecified)	inconclusive [inhibitor, full curve]	
Cc1cc(C)c2nc(SCC(=O)NCC3CCCO3)c(C#N)cc2c1 (stereo unspecified)	inconclusive [inhibitor, full curve]	
O=C(c1ccc(F)cc1)N1CCN(Cc2ccccc2)CC1		inactive: 10.7%
O=C(O)CSc1ccc2ccccc2n1		inactive: -2.55%
Cc1cc(C)nc(NC2=NCC(=O)N2CCc2c[nH]c3ccccc23)n1	inconclusive [inhibitor, partial curve]	
Oc1cccc(/C=N/N(Cc2ccccc2)c2ccccc2)c1	inconclusive [inhibitor, single point]	
COc1cccc(CNC(=O)CN2C(=O)NC(c3ccccc3)(c3ccccc3)C2=O)c1		inconclusive: -39.1% [inhibitor]
CCN(CC)S(=O)(=O)c1ccc(NC(=O)C2CCCN(C(=O)c3ccc(Cl)cc3)C2)cc1 (stereo unspecified)	inconclusive [inhibitor, single point]	
CC(C)(C)CC(C)(C)NC(=S)NC1CCN(Cc2ccccc2)CC1	inconclusive [inhibitor, single point]	
COc1cc(CN2CCCC(CO)(Cc3ccccc3C)C2)cc2c1OCO2 (stereo unspecified)	inconclusive [inhibitor, single point]	
O=C(NC1CC1)c1cc2c(F)cccc2s1		inconclusive: -68.4% [inhibitor]
O=c1[nH]cnc(O)c1C(c1cccc([N+](=O)[O-])c1)c1c(O)nc[nH]c1=O	inconclusive [inhibitor, partial curve]	
O=C(CNC(=O)c1cccs1)NCC(=O)OCc1ccc(Cl)cc1		inactive: 18%
